Test results from the supplement of paper PMC4996465.

Tests used:
[1] = test system: KB3-1; test: viability (% of DMSO control); higher = more viable cells
Protocol: (§1)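 Eleven-dose screen of the NCATS MIPE 3 library on cells without co-treatment; CellTiter-Glo after 48 h, as % of DMSO wells.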

[2] = test system: Nalm-6; test: as above
Protocol: as §1

OC1=C(C=CC=C1)C2=CC=C(C=C2)C3=CSC4=C3C(=C(/C#N)C(=O)N4)/O
[1]
Settings | viability [%]
0.00078 µM | 98.5
0.00234 µM | 97.7
0.00702 µM | 97.3
0.0211 µM | 102
0.0632 µM | 99.4
0.19 µM | 101
0.569 µM | 103
1.71 µM | 108
5.12 µM | 109
15.4 µM | 104
46.1 µM | 106

OCCn1cc(-c2ccc3c(c2)CC/C3=N\O)c(-c2ccncc2)n1
Settings | viability [%]
[1], 0.00078 µM | 99.4
[1], 0.00234 µM | 102
[1], 0.00702 µM | 95.6
[1], 0.0211 µM | 102
[1], 0.0632 µM | 101
[1], 0.19 µM | 110
[1], 0.569 µM | 109
[1], 1.71 µM | 111
[1], 5.12 µM | 103
[1], 15.4 µM | 102
[1], 46.1 µM | 88.1
[2], run: 1, 0.00078 µM | 116
[2], run: 1, 0.00234 µM | 115
[2], run: 1, 0.00702 µM | 110
[2], run: 1, 0.0211 µM | 109
[2], run: 1, 0.0632 µM | 102
[2], run: 1, 0.19 µM | 104
[2], run: 1, 0.569 µM | 105
[2], run: 1, 1.71 µM | 113
[2], run: 1, 5.12 µM | 119
[2], run: 1, 15.4 µM | 105
[2], run: 1, 46.1 µM | 89.3
[2], run: 2, 0.00078 µM | 106
[2], run: 2, 0.00234 µM | 104
[2], run: 2, 0.00702 µM | 106
[2], run: 2, 0.0211 µM | 93
[2], run: 2, 0.0632 µM | 101
[2], run: 2, 0.19 µM | 105
[2], run: 2, 0.569 µM | 107
[2], run: 2, 1.71 µM | 101
[2], run: 2, 5.12 µM | 99.7
[2], run: 2, 15.4 µM | 107
[2], run: 2, 46.1 µM | 98.3

OCCn1cc(-c2cnc3nnn(Cc4ccc5ncccc5c4)c3n2)cn1
Settings | viability [%]
[1], 0.00078 µM | 102
[1], 0.00234 µM | 102
[1], 0.00702 µM | 94.7
[1], 0.0211 µM | 96
[1], 0.0632 µM | 94.8
[1], 0.19 µM | 95.9
[1], 0.569 µM | 94.6
[1], 1.71 µM | 98
[1], 5.12 µM | 99.7
[1], 15.4 µM | 101
[1], 46.1 µM | 96.6
[2], run: 1, 0.00078 µM | 3.61
[2], run: 1, 0.00234 µM | 125
[2], run: 1, 0.00702 µM | 112
[2], run: 1, 0.0211 µM | 116
[2], run: 1, 0.0632 µM | 118
[2], run: 1, 0.19 µM | 119
[2], run: 1, 0.569 µM | 112
[2], run: 1, 1.71 µM | 117
[2], run: 1, 5.12 µM | 120
[2], run: 1, 15.4 µM | 107
[2], run: 1, 46.1 µM | 87.2
[2], run: 2, 0.00078 µM | 115
[2], run: 2, 0.00234 µM | 118
[2], run: 2, 0.00702 µM | 110
[2], run: 2, 0.0211 µM | 107
[2], run: 2, 0.0632 µM | 112
[2], run: 2, 0.19 µM | 111
[2], run: 2, 0.569 µM | 109
[2], run: 2, 1.71 µM | 105
[2], run: 2, 5.12 µM | 108
[2], run: 2, 15.4 µM | 106
[2], run: 2, 46.1 µM | 102

O=C(NOC[C@H](O)CO)c1ccc(F)c(F)c1Nc1ccc(I)cc1F
Settings | viability [%]
[1], 0.00078 µM | 92
[1], 0.00234 µM | 99.8
[1], 0.00702 µM | 92
[1], 0.0211 µM | 92.5
[1], 0.0632 µM | 93.8
[1], 0.19 µM | 89.6
[1], 0.569 µM | 92.8
[1], 1.71 µM | 93.1
[1], 5.12 µM | 99
[1], 15.4 µM | 92.5
[1], 46.1 µM | 93.2
[2], run: 1, 0.00078 µM | 102
[2], run: 1, 0.00234 µM | 118
[2], run: 1, 0.00702 µM | 112
[2], run: 1, 0.0211 µM | 107
[2], run: 1, 0.0632 µM | 106
[2], run: 1, 0.19 µM | 105
[2], run: 1, 0.569 µM | 101
[2], run: 1, 1.71 µM | 103
[2], run: 1, 5.12 µM | 104
[2], run: 1, 15.4 µM | 95.2
[2], run: 1, 46.1 µM | 78
[2], run: 2, 0.00078 µM | 106
[2], run: 2, 0.00234 µM | 106
[2], run: 2, 0.00702 µM | 99.6
[2], run: 2, 0.0211 µM | 96.2
[2], run: 2, 0.0632 µM | 103
[2], run: 2, 0.19 µM | 103
[2], run: 2, 0.569 µM | 99.8
[2], run: 2, 1.71 µM | 99.6
[2], run: 2, 5.12 µM | 99.2
[2], run: 2, 15.4 µM | 97.1
[2], run: 2, 46.1 µM | 84.9

O=C(Nc1nc2ccccc2n1CCN1CCOCC1)c1cccc([N+](=O)[O-])c1
Settings | viability [%]
[1], 0.00078 µM | 90.8
[1], 0.00234 µM | 90.1
[1], 0.00702 µM | 84.1
[1], 0.0211 µM | 89.4
[1], 0.0632 µM | 88.8
[1], 0.19 µM | 89.4
[1], 0.569 µM | 90.7
[1], 1.71 µM | 89.5
[1], 5.12 µM | 93.7
[1], 15.4 µM | 89.5
[1], 46.1 µM | 66.3
[2], run: 1, 0.00078 µM | 94.9
[2], run: 1, 0.00234 µM | 107
[2], run: 1, 0.00702 µM | 102
[2], run: 1, 0.0211 µM | 104
[2], run: 1, 0.0632 µM | 105
[2], run: 1, 0.19 µM | 97.6
[2], run: 1, 0.569 µM | 113
[2], run: 1, 1.71 µM | 109
[2], run: 1, 5.12 µM | 101
[2], run: 1, 15.4 µM | 95.9
[2], run: 1, 46.1 µM | 50.6
[2], run: 2, 0.00078 µM | 107
[2], run: 2, 0.00234 µM | 107
[2], run: 2, 0.00702 µM | 105
[2], run: 2, 0.0211 µM | 115
[2], run: 2, 0.0632 µM | 102
[2], run: 2, 0.19 µM | 107
[2], run: 2, 0.569 µM | 110
[2], run: 2, 1.71 µM | 109
[2], run: 2, 5.12 µM | 110
[2], run: 2, 15.4 µM | 103
[2], run: 2, 46.1 µM | 49.2

Nc1ncnc2nc(-c3ccc(N4CCOCC4)nc3)cc(-c3cccc(Br)c3)c12 [ABT-702]
Settings | viability [%]
[1], 0.00078 µM | 103
[1], 0.00234 µM | 106
[1], 0.00702 µM | 101
[1], 0.0211 µM | 105
[1], 0.0632 µM | 108
[1], 0.19 µM | 110
[1], 0.569 µM | 107
[1], 1.71 µM | 103
[1], 5.12 µM | 106
[1], 15.4 µM | 104
[1], 46.1 µM | 74.6
[2], run: 1, 0.00078 µM | 83
[2], run: 1, 0.00234 µM | 76.4
[2], run: 1, 0.00702 µM | 82.1
[2], run: 1, 0.0211 µM | 94.2
[2], run: 1, 0.0632 µM | 97.3
[2], run: 1, 0.19 µM | 109
[2], run: 1, 0.569 µM | 108
[2], run: 1, 1.71 µM | 114
[2], run: 1, 5.12 µM | 114
[2], run: 1, 15.4 µM | 103
[2], run: 1, 46.1 µM | 58.7
[2], run: 2, 0.00078 µM | 109
[2], run: 2, 0.00234 µM | 114
[2], run: 2, 0.00702 µM | 112
[2], run: 2, 0.0211 µM | 116
[2], run: 2, 0.0632 µM | 110
[2], run: 2, 0.19 µM | 114
[2], run: 2, 0.569 µM | 105
[2], run: 2, 1.71 µM | 111
[2], run: 2, 5.12 µM | 105
[2], run: 2, 15.4 µM | 104
[2], run: 2, 46.1 µM | 57.6

Nc1cccc2c1CN(C1CCC(=O)NC1=O)C2=O (configuration not stated) [Lenalidomide]
[1]
Settings | viability [%]
0.00156 µM | 106
0.00468 µM | 103
0.014 µM | 104
0.0421 µM | 104
0.126 µM | 102
0.379 µM | 103
1.14 µM | 101
3.41 µM | 102
10.2 µM | 102
30.7 µM | 98.7
92.2 µM | 99.7

COC1=CC=C(C(=C1)OC(C)C)C/2=N/[C@@H]([C@@H](N2C(=O)N3CCNC(=O)C3)C4=CC=C(Cl)C=C4)C5=CC=C(Cl)C=C5 [Nutlin-3]
[1]
Settings | viability [%]
0.00078 µM | 98.7
0.00234 µM | 101
0.00702 µM | 101
0.0211 µM | 105
0.0632 µM | 97.9
0.19 µM | 99.3
0.569 µM | 102
1.71 µM | 101
5.12 µM | 106
15.4 µM | 104
46.1 µM | 59.8

CCC(C)(C)C(=O)O[C@H]1C[C@@H](C)C=C2C=C[C@H](C)[C@H](CC[C@@H]3C[C@@H](O)CC(=O)O3)[C@H]21 [Simvastatin]
[2]
Settings | viability [%]
run: 1, 0.000349 µM | 77.4
run: 1, 0.00105 µM | 88.7
run: 1, 0.00314 µM | 111
run: 1, 0.00942 µM | 101
run: 1, 0.0283 µM | 89.4
run: 1, 0.0848 µM | 114
run: 1, 0.254 µM | 105
run: 1, 0.763 µM | 108
run: 1, 2.29 µM | 114
run: 1, 6.87 µM | 122
run: 1, 20.6 µM | 57.4
run: 2, 0.000349 µM | 99.4
run: 2, 0.00105 µM | 94.7
run: 2, 0.00314 µM | 105
run: 2, 0.00942 µM | 98.3
run: 2, 0.0283 µM | 100
run: 2, 0.0848 µM | 104
run: 2, 0.254 µM | 101
run: 2, 0.763 µM | 100
run: 2, 2.29 µM | 101
run: 2, 6.87 µM | 104
run: 2, 20.6 µM | 75

COc1ccc(CCN(C)CCCC(C#N)(c2ccc(OC)c(OC)c2)C(C)C)cc1OC (configuration not stated) [Verapamil]
[2]
Settings | viability [%]
run: 1, 0.00078 µM | 89.8
run: 1, 0.00234 µM | 99.5
run: 1, 0.00702 µM | 103
run: 1, 0.0211 µM | 95.6
run: 1, 0.0632 µM | 100
run: 1, 0.19 µM | 103
run: 1, 0.569 µM | 109
run: 1, 1.71 µM | 107
run: 1, 5.12 µM | 104
run: 1, 15.4 µM | 97.7
run: 1, 46.1 µM | 72.7
run: 2, 0.00078 µM | 91.2
run: 2, 0.00234 µM | 101
run: 2, 0.00702 µM | 103
run: 2, 0.0211 µM | 97.4
run: 2, 0.0632 µM | 104
run: 2, 0.19 µM | 95.6
run: 2, 0.569 µM | 97.8
run: 2, 1.71 µM | 102
run: 2, 5.12 µM | 102
run: 2, 15.4 µM | 105
run: 2, 46.1 µM | 59.4

Viability of KB3-1 and Nalm-6 cells after 48 h of drug alone (CellTiter-Glo), 11 doses over about 4.5 log units. % of DMSO wells, lower = more cell loss; AC50 from the fitted curve, lower = more potent. No active / inactive call. Nalm-6 was screened in two runs. AC50 is listed only for well-fitted inhibitory curves. KB3-1 is a HeLa-derived carcinoma line, Nalm-6 a B-cell precursor leukaemia line.
